Assay results from PubChem BioAssay AID651820 (National Center for Advancing Translational Sciences (NCATS), 2012).
Screen size: about 340,000 compounds; about 12,000 (3.5%) were called active. The inconclusive results got no clear call from the source; some entries with a clear call stand among them for comparison. The call rests on the fitted dose curve; in most records, active means well fitted inhibition curve with a large enough effect; inconclusive means small, poorly fitted or top-dose-only effect, or another doubt; inactive means no such curve, though single readings can be large or run the other way. No potency is given beside an inconclusive call; the fits are too rough.

Experiment: qHTS Assay for Inhibitors of Hepatitis C Virus (HCV)
Settings: Huh7.5.1 HCVcc-Cre (HCVcc is cell-culture hepatitis C virus) infection, luciferase reporter, 44 h; series mostly up to 41.8 µM
In short: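 A cell-based infection assay in which seeded cells (1,000 per well) receive test compound after 4 h, are inoculated with HCVcc-Cre at approximately 0.5 moi, and are incubated 44 h before luminescence detection.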
Potency means the concentration at half of the fitted maximal effect; tags describe the fitted curve by direction and shape.

**Q.** Which Potency does the source give for `O=C(Cc1ccc(F)cc1)Nc1nc(-c2ccc(F)cc2)cs1` here?
**A.** inconclusive [inhibitor, single point]

**Q.** Which Potency does the source give for `Cc1ccc[n+](CC(=O)/C=C2\N(C)c3ccccc3C2(C)C)c1` here?
**A.** inactive

**Q.** With `CC(C)(C)c1ccc(C(=O)NC(=S)NNC(=O)COc2ccccc2)cc1` as the compound, how does the Potency read?
**A.** inconclusive [inhibitor, full curve]

**Q.** Which Potency does the source give for `COc1ccc(/C=C/C2=Nc3ccccc3NC(C)(C)C2)cc1OC` here?
**A.** inconclusive [inhibitor, single point]

**Q.** With `COc1ccccc1NC(=O)CSc1ncc(CO)n1Cc1ccc(F)cc1` as the compound, how does the Potency read?
**A.** inconclusive [inhibitor, partial curve]

**Q.** For `COc1ccc(Cl)cc1NC(=O)CN1CCC(n2nnc3cc(F)ccc32)CC1`, which Potency is on record?
**A.** inconclusive [inhibitor, partial curve]

**Q.** Which Potency does the source give for `CN(C)C(=O)c1c(NC(=O)c2ccccc2)sc2c1CCC2` here?
**A.** inconclusive [inhibitor, single point]

**Q.** With `COc1ccc(N(CC(O)CN2CCCCC2)S(=O)(=O)c2ccc(C)cc2)cc1` (configuration not stated) as the compound, how does the Potency read?
**A.** inconclusive [inhibitor, partial curve]

**Q.** Which Potency does the source give for `COc1cccc(CN2CCN(C(=O)c3cccs3)CC2)c1OC` here?
**A.** inconclusive [inhibitor, single point]

**Q.** Which Potency does the source give for `Cc1n[nH]c(=S)n1/N=C/c1ccccc1OCc1ccc(Cl)cc1Cl` here?
**A.** inactive

**Q.** For `CC(=O)c1sc(NC(=O)c2ccccc2F)nc1C`, which Potency is on record?
**A.** inconclusive [inhibitor, partial curve]

**Q.** For `COc1cc(C=Nc2cccc(C)c2)c(O)c([N+](=O)[O-])c1`, which Potency is on record?
**A.** inconclusive [inhibitor, single point]

**Q.** With `COC(=O)C1=C(NC(C)=O)CCS1` as the compound, how does the Potency read?
**A.** inconclusive [inhibitor, single point]

**Q.** Which Potency does the source give for `O=C(CSc1nnc(-c2ccc(F)cc2)c2ccccc12)Nc1cccc(Cl)c1` here?
**A.** inconclusive [inhibitor, single point]

**Q.** With `Cc1nc2cc(NC(=O)Nc3cccc([N+](=O)[O-])c3)ccc2n1C` as the compound, how does the Potency read?
**A.** inconclusive [inhibitor, single point]

**Q.** For `O=C(NCCCn1ccnc1)c1cc(-c2ccc(Cl)cc2)nc2ccccc12`, which Potency is on record?
**A.** active: 11.2 µM

**Q.** For `FC(F)Oc1ccc(-c2csc(=Nc3cccnc3)n2CC2CCCO2)cc1` (configuration not stated), which Potency is on record?
**A.** active: 11.2 µM

**Q.** With `O=C(c1ccc(OC2CCN(Cc3ccccc3C(F)(F)F)CC2)cc1)N1CCCCC1` as the compound, how does the Potency read?
**A.** inconclusive [inhibitor, single point]

**Q.** Which Potency does the source give for `CC(C)n1c(O)c(N=NC(=O)CNC(=O)Cc2ccc(Cl)cc2)c2ccccc21` here?
**A.** inconclusive [inhibitor, partial curve]

**Q.** With `CCOC(=O)c1ccc(Oc2nc(N(C)C)nc(N3CCOCC3)n2)cc1` as the compound, how does the Potency read?
**A.** inconclusive [inhibitor, partial curve]

**Q.** With `COc1ccc(-n2c(Cc3ccccc3)nnc2SCC(=O)N2CCCc3ccccc32)cc1` as the compound, how does the Potency read?
**A.** inconclusive [inhibitor, single point]

**Q.** With `CN1C(=O)CSc2ccc(NC(=O)N3CCN(c4ccccn4)CC3)cc21` as the compound, how does the Potency read?
**A.** inconclusive [inhibitor, partial curve]

**Q.** With `Cc1cccc(C(=O)Nc2nnc(S(=O)(=O)N3CCOCC3)s2)c1` as the compound, how does the Potency read?
**A.** inactive

**Q.** With `CC(C(=O)Nc1ccc(C#N)cc1)N1CCN(C(=O)C2CC2)CC1` (configuration not stated) as the compound, how does the Potency read?
**A.** inactive

**Q.** For `Cc1cc(C)c2nc(C(F)(F)F)nc(NCCCN3CCCC3=O)c2c1`, which Potency is on record?
**A.** inconclusive [inhibitor, partial curve]

**Q.** For `C=CCN1c2ccccc2[C@]23C[C@@H](C(=O)OC)N(C(=O)c4cccs4)C2=NC(C(=O)OC)=C(C(=O)OC)[C@H]13`, which Potency is on record?
**A.** inactive

**Q.** With `CCc1ccc(C(=O)NNC(=O)[C@H](C)NC(=O)c2ccco2)cc1` as the compound, how does the Potency read?
**A.** inactive

**Q.** With `C#CC(CC)(CC)NC(=O)c1cc(S(=O)(=O)N2CCCCC2)ccc1N1CCOCC1` as the compound, how does the Potency read?
**A.** inactive

**Q.** For `O=C1C=C(c2ccccc2)C(O)(c2ccccc2)C1` (configuration not stated), which Potency is on record?
**A.** inconclusive [inhibitor, full curve, poor fit]

**Q.** Which Potency does the source give for `Cc1ccc(OCC(=O)Nc2ccc(NC(=O)c3ccco3)cc2)c(C)c1` here?
**A.** inconclusive [inhibitor, partial curve]

**Q.** Which Potency does the source give for `O=C(NCCN1CCN(c2ccccc2)CC1)c1cccn2c(=O)c3ccccc3nc12` here?
**A.** inconclusive [inhibitor, single point]

**Q.** Which Potency does the source give for `CCN(CC)S(=O)(=O)c1ccc(OC)c(NC(=O)CSc2cc(C)ccc2C)c1` here?
**A.** inconclusive [inhibitor, partial curve]

**Q.** For `CCOC(=O)CSc1nc2cc(C(=O)OC)ccc2c(=O)n1CCN1CCOCC1`, which Potency is on record?
**A.** inactive

**Q.** For `O=C(NC1CCC(=O)N(CCSc2ccccc2)CC1)OCc1ccccc1` (configuration not stated), which Potency is on record?
**A.** inconclusive [inhibitor, single point]

**Q.** For `COc1ccc(Nc2nc(C)c3ccccc3n2)cc1`, which Potency is on record?
**A.** inconclusive [inhibitor, partial curve, poor fit]

**Q.** For `Cc1ccc(C)c(N(CC(=O)NC2CCCC2)C(=O)c2oc(C(C)(C)C)cc2C)c1`, which Potency is on record?
**A.** inconclusive [inhibitor, single point]

**Q.** For `CN(C)CCCNc1ccc(-c2nn(C)c(=O)c3ccccc23)cc1[N+](=O)[O-]`, which Potency is on record?
**A.** inconclusive [inhibitor, partial curve]

**Q.** With `O=C(CNc1ccc(F)cc1)N/N=C1\CCc2ccccc21` as the compound, how does the Potency read?
**A.** inactive

**Q.** For `CCN(CC)S(=O)(=O)c1ccc(OC)c(NC(=O)/C=C/c2ccco2)c1`, which Potency is on record?
**A.** inconclusive [inhibitor, partial curve]

**Q.** Which Potency does the source give for `CCS(=O)(=O)N1CCN(c2ccc(C(=O)NC3C4CC5CC(C4)CC3C5)cc2[N+](=O)[O-])CC1` (configuration not stated) here?
**A.** inconclusive [inhibitor, partial curve]

**Q.** Which Potency does the source give for `CC(C)Oc1ccc(CCNC(=O)C2CCC(=O)N(Cc3cccc(F)c3)C2)cc1` (configuration not stated) here?
**A.** inactive

**Q.** For `CCOC(=O)c1ccccc1NC(=O)c1cn(-c2ccc(OC)cc2)c(=O)c2ccccc12`, which Potency is on record?
**A.** inactive

**Q.** Which Potency does the source give for `COc1ccccc1CNC(=O)COC(=O)Cc1c(Cl)cccc1Cl` here?
**A.** inactive

**Q.** With `N/C(=N\OC(=O)c1ccc2c(c1)OCO2)c1ccncc1` as the compound, how does the Potency read?
**A.** inactive

**Q.** For `O=C(COC(=O)C1=COCCO1)NCc1ccc(F)cc1`, which Potency is on record?
**A.** inactive

**Q.** With `CCCN(CCC)CCCNC(=S)Nc1ccc2nc(N3CCCC3)cc(C)c2c1` as the compound, how does the Potency read?
**A.** active: 10 µM

**Q.** For `CN(C)c1nc(OCCNC(=O)COc2ccc(Cl)cc2Cl)nc(N2CCOCC2)n1`, which Potency is on record?
**A.** inconclusive [inhibitor, partial curve]

**Q.** For `CCCN1C(=O)/C(=C2\SC(N3CCCCC3)=NC2=O)c2ccccc21`, which Potency is on record?
**A.** inconclusive [inhibitor, single point]

**Q.** For `Cc1cc(C)c(S(=O)(=O)ON2C(=O)c3ccccc3C2=O)cc1C`, which Potency is on record?
**A.** inactive

**Q.** Which Potency does the source give for `CCOC(=O)C1CCN(Cc2nc(-c3ccc(OC)c(OC)c3)no2)CC1` here?
**A.** inconclusive [inhibitor, partial curve]

**Q.** Which Potency does the source give for `O=C(Nc1cccc(-c2ccc3nncn3n2)c1)c1ccco1` here?
**A.** inconclusive [inhibitor, single point]

**Q.** Which Potency does the source give for `COc1ccc(CN(C(=O)c2cnccn2)C(C(=O)Nc2ccc(F)cc2)c2ccccc2)cc1` (configuration not stated) here?
**A.** inconclusive [inhibitor, partial curve, poor fit]

**Q.** With `CCOc1ccc2oc(C(=O)NC3CCN(Cc4ccccc4)CC3)c(C)c2c1` as the compound, how does the Potency read?
**A.** inconclusive [inhibitor, partial curve]

**Q.** For `COc1ccc2c(c1)c(CC(=O)Nc1cccc(S(N)(=O)=O)c1)c(C)n2C(=O)c1ccc(Cl)cc1`, which Potency is on record?
**A.** inconclusive [inhibitor, single point]

**Q.** With `COc1ccc(Cl)cc1S(=O)(=O)Nc1ccc2c(c1)n(C)c(=O)n2C` as the compound, how does the Potency read?
**A.** inconclusive [inhibitor, single point]

**Q.** For `Cc1cccc(N2CCN(C(=O)c3ccc(N4CCCC4=O)cc3)CC2C)c1` (configuration not stated), which Potency is on record?
**A.** inconclusive [inhibitor, single point]

**Q.** Which Potency does the source give for `C/C(=N\NC(=O)c1nn(C)c(C)c1Br)c1ccc(NC(=O)c2ccccc2F)cc1` here?
**A.** inconclusive [inhibitor, partial curve]

**Q.** For `CCN(CC)C(=O)CN1C(=O)C2(OCC(C)(c3ccccc3)CO2)c2ccccc21` (configuration not stated), which Potency is on record?
**A.** inconclusive [inhibitor, partial curve]

**Q.** With `CCOC(=O)CC(=O)CSc1nc2ccc(OC)cc2cc1C` as the compound, how does the Potency read?
**A.** inconclusive [inhibitor, single point]

**Q.** For `c1cncc(Nc2c3ccccc3nc3ccccc23)c1`, which Potency is on record?
**A.** inconclusive [inhibitor, single point]

**Q.** For `Cc1cccc(Nc2nc(-c3ccc(O)c(O)c3)cs2)n1`, which Potency is on record?
**A.** inconclusive [inhibitor, single point]

**Q.** Which Potency does the source give for `CCOC(=O)C1CCCNC1=O` (configuration not stated) here?
**A.** inactive

**Q.** For `Nc1ccc(C(=O)OCC(=O)Nc2cccc(S(=O)(=O)NC3=NCCCCC3)c2)cc1[N+](=O)[O-]`, which Potency is on record?
**A.** inconclusive [inhibitor, full curve]

**Q.** Which Potency does the source give for `COc1cc(OC)cc(C(=O)Nc2ccc(NC(=O)c3ccco3)c(C)c2)c1` here?
**A.** inconclusive [inhibitor, partial curve]

**Q.** With `O=c1[nH]nc(Cc2ccc(-c3cccc(Cl)c3)o2)c2ccccc12` as the compound, how does the Potency read?
**A.** inconclusive [inhibitor, single point]

**Q.** Which Potency does the source give for `Cc1cc(=O)oc2c3c(cc(OCC(=O)NCc4ccncc4)c12)OC(C)(C)CC3` here?
**A.** inconclusive [inhibitor, partial curve]

**Q.** With `CC(C)c1ccc(NC(=O)[C@H](Cc2c[nH]c3ccccc23)NC(=O)[C@@H]2Cc3ccccc3CN2)cc1` as the compound, how does the Potency read?
**A.** active: 4.47 µM
